Values marked as one replicate rest on one cluster of the flow cell; about a third of the high ones do not repeat.
Each sequence was assayed on ATP (assay: switch fluorescence ratio, 500 uM ATP over buffer (Cy3 cluster intensity, sum of 5 cycles each) (fold (ratio)); higher = stronger signal-on switching upon ATP binding; sequences stand for … in TCGTCGGCAGCGTCAGATGTGTATAAGAGACAGTTTTTTTTTTTTTTTTTTTTTTTTT…TC). Conditions: aptamer strand: ATP DNA aptamer (quencher-CACCTGGGGGAGTATTGCGGAGGAAGG + anchor), 100 nM annealed; ATP concentration: 500 uM; one replicate.
Summary of the method: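 Clusters with intensities outside 100-1000 RFU were excluded. The remaining Cy3-labelled switching-strand clusters on a modified Illumina MiSeq flow-cell had been annealed to 100 nM quencher-labelled ATP aptamer and imaged in selection buffer, then after 15 min with 500 uM ATP at 22 °C, for five cycles separated by NaOH stripping and re-annealing. The fluorescence ratio, averaged per switch-domain sequence, is each cluster's summed target-cycle Cy3 intensity over its summed buffer-cycle Cy3 intensity.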
Work on TCCAACTTCT yielded a switch fluorescence ratio of 1.02. With TCCAAGTCT the switch fluorescence ratio was 0.974. TCCACCTGTT gave a switch fluorescence ratio of 1.09. In the case of TCCACGAATA, the switch fluorescence ratio is reported as 1.03. TCCACGATGG showed a switch fluorescence ratio of 1.09. TCCACGGTAG showed a switch fluorescence ratio of 1.01. Sequence TCCACTCTTA has a switch fluorescence ratio of 1.01. Work on TCCAGAGAAA yielded a switch fluorescence ratio of 1.01. TCCAGATTGG gave a switch fluorescence ratio of 1.01. TCCAGCGGGA was tested, and the switch fluorescence ratio was 0.971. With TCCAGGCCTA the switch fluorescence ratio was 1.01. Work on TCCAGTGACC yielded a switch fluorescence ratio of 1.03. In the case of TCCAGTGCCT, the switch fluorescence ratio is reported as 1.11. Sequence TCCAGTGGCA has a switch fluorescence ratio of 0.985. Work on TCCAGTGGGC yielded a switch fluorescence ratio of 1.02. Work on TCCAGTTCT yielded a switch fluorescence ratio of 1. TCCATAACGT was tested, and the switch fluorescence ratio was 1.03. For TCCATCCTAA, the switch fluorescence ratio was 1.02. TCCATCGGTC showed a switch fluorescence ratio of 1.02. Work on TCCATTCGGA yielded a switch fluorescence ratio of 1.08. TCCATTGGGA gave a switch fluorescence ratio of 1.02. Work on TCCCAACGCC yielded a switch fluorescence ratio of 1.11. For TCCCAGAAAA, the switch fluorescence ratio was 1. For TCCCAGTTTT, the switch fluorescence ratio was 1.06. Sequence TCCCCACCGA has a switch fluorescence ratio of 1.29. Sequence TCCCCAGC has a switch fluorescence ratio of 2.26. TCCCCAGCAG showed a switch fluorescence ratio of 4.73. With TCCCCCGTAT the switch fluorescence ratio was 1.61. For TCCCGACTCT, the switch fluorescence ratio was 1.03. Work on TCCCGATTTT yielded a switch fluorescence ratio of 0.997. With TCCCGCGCCG the switch fluorescence ratio was 1.17. Sequence TCCCGGAAGC has a switch fluorescence ratio of 2.43. TCCCGGCTCT showed a switch fluorescence ratio of 1.08. TCCCGGGGAG was tested, and the switch fluorescence ratio was 1.33. TCCCGGTTCC showed a switch fluorescence ratio of 1.04. With TCCCTCTGCT the switch fluorescence ratio was 1.39. TCCCTGGGGC was tested, and the switch fluorescence ratio was 1.28. TCCCTGGTTG gave a switch fluorescence ratio of 1.19. TCCCTGTGGT was tested, and the switch fluorescence ratio was 1.02. Sequence TCCCTTAAGG has a switch fluorescence ratio of 0.986. Sequence TCCCTTCCTA has a switch fluorescence ratio of 1.13. Sequence TCCCTTGCTT has a switch fluorescence ratio of 1.3. TCCGAAAATT gave a switch fluorescence ratio of 0.972. Work on TCCGAGCGAT yielded a switch fluorescence ratio of 1.08. For TCCGAGTCTG, the switch fluorescence ratio was 1.27. TCCGATCGGA gave a switch fluorescence ratio of 0.967. TCCGATTA was tested, and the switch fluorescence ratio was 1.05. TCCGATTATA was tested, and the switch fluorescence ratio was 1.04. In the case of TCCGATTGTT, the switch fluorescence ratio is reported as 1.27. TCCGATTTAG gave a switch fluorescence ratio of 1.15. TCCGCATCTT gave a switch fluorescence ratio of 4.67. TCCGCCCAAG was tested, and the switch fluorescence ratio was 2.58. TCCGCGAGTA gave a switch fluorescence ratio of 2.2. For TCCGGAGA, the switch fluorescence ratio was 1.55. TCCGGATCCG was tested, and the switch fluorescence ratio was 1.02. In the case of TCCGGCATGT, the switch fluorescence ratio is reported as 1.2. In the case of TCCGGCCACT, the switch fluorescence ratio is reported as 1.06. TCCGGCTTGC gave a switch fluorescence ratio of 1.01. For TCCGGGCGG, the switch fluorescence ratio was 1.05. TCCGGTCCCT gave a switch fluorescence ratio of 1.06. TCCGGTTTCT showed a switch fluorescence ratio of 0.985. TCCGTCAACG showed a switch fluorescence ratio of 1.02. TCCGTCAAGG was tested, and the switch fluorescence ratio was 1.07. TCCGTCGGTG was tested, and the switch fluorescence ratio was 1.02. TCCGTGTAGC was tested, and the switch fluorescence ratio was 1.06. TCCGTGTCGA showed a switch fluorescence ratio of 1.33. TCCGTTGATT gave a switch fluorescence ratio of 1.01. TCCTACGATT gave a switch fluorescence ratio of 1.8. TCCTACTTAT was tested, and the switch fluorescence ratio was 1.08. With TCCTCAACA the switch fluorescence ratio was 1.28. TCCTCACCGG gave a switch fluorescence ratio of 1.08. Work on TCCTCATTGT yielded a switch fluorescence ratio of 1.02. With TCCTCCCCCT the switch fluorescence ratio was 2.27. With TCCTCGAAGT the switch fluorescence ratio was 1.23. With TCCTCGACCG the switch fluorescence ratio was 1.02. TCCTCTCAAG showed a switch fluorescence ratio of 2.39. TCCTCTTGCT gave a switch fluorescence ratio of 1.86. TCCTGAAT showed a switch fluorescence ratio of 1.02. In the case of TCCTGCGTTT, the switch fluorescence ratio is reported as 1.04. TCCTTAGAGT was tested, and the switch fluorescence ratio was 0.972. For TCCTTAGGT, the switch fluorescence ratio was 0.975. TCCTTATGGC gave a switch fluorescence ratio of 1.08. With TCCTTGTAAC the switch fluorescence ratio was 1.21. In the case of TCCTTTGCCC, the switch fluorescence ratio is reported as 1.02. Work on TCCTTTGTTG yielded a switch fluorescence ratio of 0.998. TCGAAAGGCC showed a switch fluorescence ratio of 0.953. TCGAAATAGT gave a switch fluorescence ratio of 1.07. TCGAAATTGT was tested, and the switch fluorescence ratio was 1.01. Work on TCGAACCACG yielded a switch fluorescence ratio of 0.969. In the case of TCGAAGGTCA, the switch fluorescence ratio is reported as 0.983. With TCGAAGTCAA the switch fluorescence ratio was 3.58. TCGAATAGGA gave a switch fluorescence ratio of 1. In the case of TCGAATGTG, the switch fluorescence ratio is reported as 0.922. TCGAATTCCT was tested, and the switch fluorescence ratio was 1.02. TCGACGTACT was tested, and the switch fluorescence ratio was 1.56. In the case of TCGACTTCCC, the switch fluorescence ratio is reported as 1.17. TCGAGAATAA showed a switch fluorescence ratio of 0.983. Work on TCGAGATGAT yielded a switch fluorescence ratio of 1. TCGAGGTGT showed a switch fluorescence ratio of 0.98. TCGAGTACTA showed a switch fluorescence ratio of 1.04. With TCGATATGCT the switch fluorescence ratio was 1.03. In the case of TCGATCCGGG, the switch fluorescence ratio is reported as 0.982. For TCGATCTAGG, the switch fluorescence ratio was 0.995. Sequence TCGATGGATT has a switch fluorescence ratio of 0.969. Work on TCGATGGGGC yielded a switch fluorescence ratio of 1.01. TCGATGGTA showed a switch fluorescence ratio of 0.962. TCGATGTTAA was tested, and the switch fluorescence ratio was 1.02. With TCGATTTTTC the switch fluorescence ratio was 1.1. TCGCAAACGA gave a switch fluorescence ratio of 1.22. TCGCAGAAGG was tested, and the switch fluorescence ratio was 1.02. TCGCAGGGCT gave a switch fluorescence ratio of 1.11. TCGCAGTGG gave a switch fluorescence ratio of 1.25. In the case of TCGCAGTTT, the switch fluorescence ratio is reported as 1.05. With TCGCATCGTT the switch fluorescence ratio was 0.976. With TCGCCAAAAG the switch fluorescence ratio was 1.1. In the case of TCGCCAGTAC, the switch fluorescence ratio is reported as 3.66. With TCGCCATGG the switch fluorescence ratio was 1.05. With TCGCCCTGCT the switch fluorescence ratio was 0.968. With TCGCCGGCCG the switch fluorescence ratio was 0.96. For TCGCCGTCCA, the switch fluorescence ratio was 1. With TCGCCTATGC the switch fluorescence ratio was 1.83. For TCGCCTTCTG, the switch fluorescence ratio was 1.05. TCGCGACGCA was tested, and the switch fluorescence ratio was 1.95. In the case of TCGCGACTCC, the switch fluorescence ratio is reported as 3.16. For TCGCGATAGA, the switch fluorescence ratio was 1.03. TCGCGATCG gave a switch fluorescence ratio of 1.11. TCGCGTCTCC gave a switch fluorescence ratio of 1.09. TCGCTACCTC was tested, and the switch fluorescence ratio was 1.85. Work on TCGCTAGGCT yielded a switch fluorescence ratio of 1.17. TCGCTATCGG gave a switch fluorescence ratio of 0.995. Work on TCGCTATGCG yielded a switch fluorescence ratio of 0.987. In the case of TCGCTGATGC, the switch fluorescence ratio is reported as 1.46. With TCGCTGGAAC the switch fluorescence ratio was 1.29. Work on TCGCTGGGGG yielded a switch fluorescence ratio of 1.33. In the case of TCGCTGTAGA, the switch fluorescence ratio is reported as 1.03. TCGCTGTGGG was tested, and the switch fluorescence ratio was 1.02. TCGCTTTGTT was tested, and the switch fluorescence ratio was 0.978. For TCGGAAAACT, the switch fluorescence ratio was 1.11. TCGGAAAGTT gave a switch fluorescence ratio of 1.16. TCGGAACTTC was tested, and the switch fluorescence ratio was 1.04. Sequence TCGGAAGGT has a switch fluorescence ratio of 1.02. Work on TCGGAGCCT yielded a switch fluorescence ratio of 1.08. With TCGGAGCTGT the switch fluorescence ratio was 1.57. TCGGATATTA gave a switch fluorescence ratio of 1.02. TCGGATCGGC showed a switch fluorescence ratio of 1.02. Work on TCGGATGCAT yielded a switch fluorescence ratio of 3.07. For TCGGATTAGA, the switch fluorescence ratio was 1.01. With TCGGCACGAC the switch fluorescence ratio was 1.09. Sequence TCGGCACTCT has a switch fluorescence ratio of 0.987. TCGGCAGTTG gave a switch fluorescence ratio of 0.996. Work on TCGGCCACCT yielded a switch fluorescence ratio of 0.952. With TCGGCCTGTG the switch fluorescence ratio was 0.989. Work on TCGGCGACGG yielded a switch fluorescence ratio of 0.993. Sequence TCGGCGTGTG has a switch fluorescence ratio of 1.06. TCGGCTGTGG gave a switch fluorescence ratio of 1.03. TCGGCTTACC gave a switch fluorescence ratio of 1.03. In the case of TCGGGAAGAC, the switch fluorescence ratio is reported as 1.59. In the case of TCGGGAGTTT, the switch fluorescence ratio is reported as 1. TCGGGCATAA gave a switch fluorescence ratio of 1.21. Sequence TCGGGCATAT has a switch fluorescence ratio of 1.12. Work on TCGGGCCCCA yielded a switch fluorescence ratio of 1.02. TCGGGCCGTC showed a switch fluorescence ratio of 1.02. TCGGGCGAGA gave a switch fluorescence ratio of 1.05. For TCGGGCGTAG, the switch fluorescence ratio was 1.03. For TCGGGCTGCG, the switch fluorescence ratio was 1. TCGGGCTTTC gave a switch fluorescence ratio of 1.05. Sequence TCGGGGAATC has a switch fluorescence ratio of 1.01. Sequence TCGGGGATGT has a switch fluorescence ratio of 1.01. Work on TCGGGTAGAC yielded a switch fluorescence ratio of 1.36. Sequence TCGGGTAGCG has a switch fluorescence ratio of 1.01. Work on TCGGGTGACT yielded a switch fluorescence ratio of 0.972. TCGGGTGAT gave a switch fluorescence ratio of 1.03. For TCGGTACGGG, the switch fluorescence ratio was 1. In the case of TCGGTGAGAA, the switch fluorescence ratio is reported as 0.973. Sequence TCGGTTAGCG has a switch fluorescence ratio of 1.01. TCGTAATGGC showed a switch fluorescence ratio of 1.07. TCGTACGGTC gave a switch fluorescence ratio of 0.993. TCGTATATAA gave a switch fluorescence ratio of 1.04. With TCGTATTATA the switch fluorescence ratio was 1.03. TCGTCACGCT showed a switch fluorescence ratio of 1.02. For TCGTCACTTC, the switch fluorescence ratio was 1.06. In the case of TCGTCATCGT, the switch fluorescence ratio is reported as 0.959. Work on TCGTCCCTG yielded a switch fluorescence ratio of 1.04. With TCGTCCTGT the switch fluorescence ratio was 1.1. Sequence TCGTCTGGA has a switch fluorescence ratio of 0.986. With TCGTCTTAGA the switch fluorescence ratio was 0.947. TCGTGAGCT was tested, and the switch fluorescence ratio was 0.972. In the case of TCGTGAGTCA, the switch fluorescence ratio is reported as 0.977. In the case of TCGTGATACG, the switch fluorescence ratio is reported as 1.15. Work on TCGTGATTAG yielded a switch fluorescence ratio of 0.987. TCGTGCGGAA showed a switch fluorescence ratio of 1.25. For TCGTGTAACT, the switch fluorescence ratio was 0.997. TCGTGTAGGA was tested, and the switch fluorescence ratio was 1.01. TCGTGTCCGC was tested, and the switch fluorescence ratio was 1.07. With TCGTGTGGA the switch fluorescence ratio was 1.04. Work on TCGTGTGGCT yielded a switch fluorescence ratio of 0.946. Work on TCGTGTTAC yielded a switch fluorescence ratio of 1.32. TCGTTATTCA was tested, and the switch fluorescence ratio was 1.01. TCGTTCATAA showed a switch fluorescence ratio of 1.04. With TCGTTCTCCC the switch fluorescence ratio was 1.17. Sequence TCGTTGTTTG has a switch fluorescence ratio of 0.981.
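Note: ATP exposure 15 min at 22 °C before imaging.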
